Laboratory results published in the BET-seq Pho4 binding data (Le et al. 2018).
This is one part of the list. These are noisy estimates, calculated here from bound and input reads.

biological target: T1, Pho4 (S. cerevisiae) (UniProt P07270); test: relative binding free energy (BET-seq); higher = weaker binding; settings: reference: library average
T1 sequence: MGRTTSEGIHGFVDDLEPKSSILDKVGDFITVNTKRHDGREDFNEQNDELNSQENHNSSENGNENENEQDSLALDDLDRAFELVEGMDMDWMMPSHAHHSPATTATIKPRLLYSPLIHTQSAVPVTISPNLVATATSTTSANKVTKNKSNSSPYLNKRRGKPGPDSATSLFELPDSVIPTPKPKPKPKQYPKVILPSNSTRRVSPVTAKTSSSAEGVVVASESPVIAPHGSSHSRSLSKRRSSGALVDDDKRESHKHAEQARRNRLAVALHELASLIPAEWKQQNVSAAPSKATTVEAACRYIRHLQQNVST

Sequence | relative binding free energy [kcal/mol]
TTTTTCACGTGATGGC | 0.45
TGGTGCACGTGAAAAG | 0.24
TGGTGCACGTGGATCG | 0.05
ATAAACACGTGTAAGG | 0.03
TGTAACACGTGTCGTT | -0.07
CGTATCACGTGTATGT | 0.05
TTTCGCACGTGTGTTT | -0.07
CGTGGCACGTGGTTTA | -0.18
TTAGTCACGTGTTTCA | 0.08
TGTTTCACGTGGAAGC | 0.33
TGAGTCACGTGAGTGC | 0.28
TGATGCACGTGTTAGT | 0.03
TGTGTCACGTGGTATG | 0.02
TCATTCACGTGCGTTG | 0.14
AGATTCACGTGGTAAG | 0.27
GTTTGCACGTGACGTA | 0.07
TCGATCACGTGTTTGA | 0.05
GTCTTCACGTGTTGCT | 0.18
GTTCGCACGTGTAAGG | 0.32
GTAGTCACGTGTTCGG | 0.03
TTAAGCACGTGGCTAA | 0.03
ACGTGCACGTGTGTTG | -0.07
ACGTTCACGTGTCTGG | 0.29
GAGATCACGTGTTGTA | 0.21
GTGGACACGTGGGTTC | -0.04
TGATACACGTGTGAGA | 0.16

Sequence | relative binding free energy [kcal/mol]
GCTTACACGTGGGTAA | 0.14
GGAGCCACGTGGGGAT | -0.2
GATGTCACGTGTAGGA | 0.2
GTGAACACGTGGGCGT | -0.06
TATGTCACGTGTGGGG | 0.17
AGAGTCACGTGGTTTG | 0.21
GGCGTCACGTGGGGTG | -0.01
TTTCTCACGTGAGCGG | 0.44
GGTAACACGTGTATAG | 0.12
TTGTTCACGTGTATAA | 0.33
AGTTCCACGTGGGGGG | -0.08
TTCGGCACGTGATTGC | 0.22
ATCTTCACGTGTTAAG | 0.15
TGCTTCACGTGTTAGT | 0.25
GTAAACACGTGTGGTA | 0.01
GGGTGCACGTGTTGAC | -0.12
CGCAGCACGTGAGTGG | 0.07
TTATCCACGTGGTGTT | -0.06
TAGACCACGTGTGGTG | -0.12
ATGGTCACGTGTATTT | 0.2
CGTGGCACGTGTAAGT | -0.03
GTGGTCACGTGTGGCC | 0.29
TTCATCACGTGCGTGT | 0.15
GGTGGCACGTGTTGAC | 0.07
TTTATCACGTGGGCAT | -0.13
GGTGGCACGTGCTGCT | -0.15

Sequence | relative binding free energy [kcal/mol]
TTTCGCACGTGATGTA | 0.08
TCGGTCACGTGTCTTT | 0.19
GGATGCACGTGGCCGG | 0.01
TATGGCACGTGGTTAG | -0.09
CTTCGCACGTGTGGGT | 0.04
TTGTTCACGTGCGGGA | 0.34
GGCGTCACGTGAGGGT | 0.4
TGTGACACGTGTTATT | -0.01
ATACGCACGTGTTGTG | -0.14
TTTTACACGTGAGCAG | 0.22
TTAGCCACGTGGGTAT | -0.25
TAGAGCACGTGTAATG | -0.15
TAATTCACGTGTATCT | 0.26
TTGTGCACGTGTAAGA | 0.05
TTTGCCACGTGTGTCG | -0.1
ATTAACACGTGTGTGA | 0.2
ATAAGCACGTGTGGTT | -0.06
GCGGACACGTGTAGGT | 0.09
GAGTGCACGTGTGCTG | 0
GTGGTCACGTGGAACT | 0.18
TTAGACACGTGGGATC | -0.03
GGAGCCACGTGGGATG | -0.08
ATTAGCACGTGTGGTG | 0.05
TGTGTCACGTGCAATT | 0.03
GGTTCCACGTGTTGTC | 0.16
TTTTACACGTGCGTTT | -0.02

Sequence | relative binding free energy [kcal/mol]
TGTGTCACGTGCAAGC | 0.2
TGACGCACGTGTTGTA | -0.19
TGGTACACGTGGGTGG | -0.04
TGTTACACGTGTGTGA | 0.15
TGGAGCACGTGGTTCT | -0.04
GTGGTCACGTGGTCAA | 0.05
TATTGCACGTGTTGTT | -0.03
TGTGGCACGTGAATCT | 0.26
TAAGTCACGTGTATTA | 0.22
TTAGTCACGTGGGGAA | -0.02
AAGGCCACGTGGGTTA | -0.32
AGGTGCACGTGCCAGG | -0.14
TGTTTCACGTGAGTTC | 0.3
GGGTACACGTGTCTAT | 0.1
AGATTCACGTGGATTG | 0.24
GCGCGCACGTGGTGGT | -0.29
GGGTTCACGTGACGGG | 0.4
TTCGTCACGTGATTTA | 0.16
CGGGTCACGTGTCCGT | 0.24
AGTGGCACGTGTCGTT | -0.16
AATGGCACGTGAGGTG | 0.12
ACGGGCACGTGGTAAA | 0.02
ATATTCACGTGTATTC | 0.18
TTACACACGTGGTGGC | 0.07
GGATTCACGTGTCGTT | 0.37
GATGTCACGTGTGTGT | 0.31

Sequence | relative binding free energy [kcal/mol]
CTGAGCACGTGGTTGG | -0.12
ATATGCACGTGAAGGG | 0.18
TTTTACACGTGTTGGG | 0.16
TTGGCCACGTGATTAG | 0.09
AAGGGCACGTGTTTCT | 0
GTACACACGTGTGGGG | 0.11
GTGGCCACGTGGTTAA | -0.1
AAGGTCACGTGGACGT | -0.04
ATGACCACGTGGGCGG | -0.16
CAGTTCACGTGGTAAG | 0.3
CTGTTCACGTGCTGAT | 0.29
CTTATCACGTGCGTGT | 0.05
TTTAGCACGTGAGACG | 0.19
GTCGGCACGTGGCAGG | -0.16
GTATTCACGTGGAAAT | 0.4
GAGTACACGTGGGTGC | 0
AGATCCACGTGAGGGT | 0.11
TTTTGCACGTGCTGCT | -0.27
TATGACACGTGTGCGG | 0.04
AGGATCACGTGGCTTA | 0.14
TCATGCACGTGAGATG | 0.23
GGGTGCACGTGTCAGT | -0.09
GTAGGCACGTGGTTGG | -0.08
GTTGTCACGTGTACTG | 0.21
ATATACACGTGTCGTT | -0.02
TGTGACACGTGTCATG | -0.03

Sequence | relative binding free energy [kcal/mol]
GATTGCACGTGGCCTG | 0.04
GTGTGCACGTGAGGGT | 0.21
GGGCTCACGTGGTCGG | 0.26
TAGTCCACGTGGTCGT | 0.02
AATCTCACGTGAGGGG | 0.38
TTTTTCACGTGGAAGG | 0.25
AGTGGCACGTGATCTT | 0.05
AGACGCACGTGGGGTA | -0.2
GTGGGCACGTGCATTT | -0.11
TAAGGCACGTGTAGTG | -0.02
AGTTTCACGTGTGCGA | 0.22
GTATCCACGTGGGGCG | -0.11
AATGTCACGTGTTATA | 0.02
ATAAGCACGTGCGGTG | -0.14
GAGTGCACGTGATTTG | 0.17
TGGCTCACGTGACGGT | 0.28
TGTTGCACGTGCAATG | 0.03
TTTTCCACGTGAGGCG | 0.32
AGTGGCACGTGCGATG | -0.17
TGGGACACGTGACGTT | 0.09
AATTTCACGTGCTATT | 0.09
TGTATCACGTGGAGAA | 0.11
GGGTGCACGTGTCTGA | -0.07
TCTGGCACGTGTAGAG | 0.02
TTTAACACGTGTATGA | -0.17
GTGCTCACGTGGTGGA | 0.05

Sequence | relative binding free energy [kcal/mol]
TAGGTCACGTGGCGAA | 0.11
ATTTGCACGTGGTTGC | -0.12
GAGTTCACGTGATTAG | 0.63
GCTTTCACGTGGGAGT | 0.36
AATTGCACGTGAGTTG | 0.12
AGAATCACGTGGTTTG | 0.06
TAATTCACGTGTTTCT | 0.28
ACGTTCACGTGGTTGG | 0.12
CGGGTCACGTGTGGCT | 0.26
GCGGGCACGTGCAGGT | -0.1
TTTGTCACGTGGAGAA | 0.13
AGAAGCACGTGGGGAG | -0.26
AATCTCACGTGGTGAT | 0.18
TTTATCACGTGGTTAG | 0.12
GGGCTCACGTGTTGTC | 0.28
GATTGCACGTGTGGGG | 0.1
GTAAACACGTGGTTTG | 0.11
AGGGTCACGTGCATGG | 0.1
TCAGGCACGTGGCTGG | -0.14
GTGGGCACGTGTCTGT | -0.12
GTAGACACGTGTGATG | -0.06
TGTAGCACGTGAGGGA | 0.16
GTGGGCACGTGGTTCT | -0.04
CGAGCCACGTGCGGGG | -0.09
TATGGCACGTGGTCTG | -0.16
TAGAGCACGTGTTTAA | -0.2

Sequence | relative binding free energy [kcal/mol]
TGGATCACGTGCTTAT | 0.08
CTTGGCACGTGGGTTA | -0.26
TAGGACACGTGTAGTT | 0.02
TTGGGCACGTGGATTA | 0.02
ATTTGCACGTGTGAAG | 0.12
GGGTTCACGTGCGAAT | 0.39
TGCGGCACGTGGTAGT | -0.26
AATGTCACGTGCAGGA | 0.19
AGTGTCACGTGGGTAC | -0.23
ACATGCACGTGTTTGG | -0.07
TATAGCACGTGCAAGG | 0.03
AAAATCACGTGTTTTT | 0.11
TGGTTCACGTGGGGGC | 0.21
GGGTTCACGTGACATT | 0.38
TTGAGCACGTGGAAGA | -0.02
ATTGACACGTGGTTGT | 0.05
GAGTGCACGTGAGGAA | 0.31
GAGTTCACGTGGGCAT | 0.19
CTGTACACGTGTTTGG | -0.06
TCTGTCACGTGATGGA | 0.17
TGATGCACGTGGGCGG | -0.26
AATGGCACGTGTGAAG | -0.05
AGTCACACGTGAGTTG | 0.15
TATTGCACGTGCTATG | -0.1
CAGGCCACGTGGGTGT | -0.17
TTGTGCACGTGGGGGA | -0.14

Sequence | relative binding free energy [kcal/mol]
TGGCTCACGTGGGATA | 0.22
TGTAGCACGTGAATGG | 0.2
TGCACCACGTGAAGGG | 0.29
ACTGTCACGTGAATTT | 0.39
TTTAGCACGTGTCGCT | 0.1
TCTGACACGTGGAGTT | 0.01
AACATCACGTGGGGGG | -0.02
AAATGCACGTGTGTGT | 0.04
TGTTGCACGTGGTGGT | 0
TGGCTCACGTGTGTCA | 0.23
GGGATCACGTGGTTCA | 0.17
GTTTACACGTGGCATG | 0.03
AAGGGCACGTGCGTGC | -0.25
TGGCTCACGTGGATGA | 0.24
TCATACACGTGGTGGA | -0.03
CGGAACACGTGTTGGT | 0.02
AAGGGCACGTGACTTT | 0.1
GTTGGCACGTGTCTAG | 0.06
TAATACACGTGATTGA | 0.11
GGCGGCACGTGTTCGT | 0.1
GCTTCCACGTGGATGT | 0.23
TCGGGCACGTGTCATT | 0.07
